From article PMC9911399, “Two distinct binding modes provide the RNA-binding protein RbFox with extraordinary sequence specificity”
Residue numbers refer to the chain shown, from its start. The list shows a part of the results.

T1: RBFOX1 RRM (Homo sapiens, UniProt Q9NWB1 109-208)
T1 sequence: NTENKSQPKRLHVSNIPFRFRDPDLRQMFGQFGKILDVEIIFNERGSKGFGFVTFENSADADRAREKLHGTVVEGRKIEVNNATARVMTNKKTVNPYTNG

B1: CCUAUAC (DNA:RNA)
RNA: GGGAGACCGGAAUUCAGAUUGUCCCCUAUACUUAAAUCCCGUCGUAGCCACCA
DNA 1: CAATCTGAATTCCGGTCTCCC
DNA 2: TGGTGGCTACGACGGGATT
B2: GAAUUGU (DNA:RNA)
RNA: B1 RNA with C25G, C26A, U27A, A28U, A30G, C31U
DNA 1: CAATCTGAATTCCGGTCTCCC
DNA 2: TGGTGGCTACGACGGGATT
B3: AGCUACA (DNA:RNA)
RNA: GGGAGACCGGAAUUCAGAUUGUCCAGCUACAUUAAAUCCCGUCGUAGCCACCA
DNA 1: CAATCTGAATTCCGGTCTCCC
DNA 2: TGGTGGCTACGACGGGATT
B4: AGUUAGA (DNA:RNA)
RNA: B3 RNA with C27U, C30G
DNA 1: CAATCTGAATTCCGGTCTCCC
DNA 2: TGGTGGCTACGACGGGATT
B5: UUAAAUC (DNA:RNA)
RNA: B1 RNA with C25U, C26U, U27A, U29A, A30U
DNA 1: CAATCTGAATTCCGGTCTCCC
DNA 2: TGGTGGCTACGACGGGATT
B6: CUUCCUU (DNA:RNA)
RNA: B1 RNA with C26U, A28C, U29C, A30U, C31U
DNA 1: CAATCTGAATTCCGGTCTCCC
DNA 2: TGGTGGCTACGACGGGATT
B7: AUACUCG (DNA:RNA)
RNA: B3 RNA with G26U, C27A, U28C, A29U, A31G
DNA 1: CAATCTGAATTCCGGTCTCCC
DNA 2: TGGTGGCTACGACGGGATT
B8: CGAGGCC (DNA:RNA)
RNA: B3 RNA with A25C, C27A, U28G, A29G, A31C
DNA 1: CAATCTGAATTCCGGTCTCCC
DNA 2: TGGTGGCTACGACGGGATT
B9: UGAAAGU (DNA:RNA)
RNA: B3 RNA with A25U, C27A, U28A, C30G, A31U
DNA 1: CAATCTGAATTCCGGTCTCCC
DNA 2: TGGTGGCTACGACGGGATT
B10: UUAUAGU (DNA:RNA)
RNA: B3 RNA with A25U, G26U, C27A, C30G, A31U
DNA 1: CAATCTGAATTCCGGTCTCCC
DNA 2: TGGTGGCTACGACGGGATT
B11: CAGCGGA (DNA:RNA)
RNA: B3 RNA with A25C, G26A, C27G, U28C, A29G, C30G
DNA 1: CAATCTGAATTCCGGTCTCCC
DNA 2: TGGTGGCTACGACGGGATT
B12: ACUGAUC (DNA:RNA)
RNA: B1 RNA with C25A, A28G, U29A, A30U
DNA 1: CAATCTGAATTCCGGTCTCCC
DNA 2: TGGTGGCTACGACGGGATT
B13: ACUCGGA (DNA:RNA)
RNA: B3 RNA with G26C, C27U, U28C, A29G, C30G
DNA 1: CAATCTGAATTCCGGTCTCCC
DNA 2: TGGTGGCTACGACGGGATT
B14: GGCCCUU (DNA:RNA)
RNA: B3 RNA with A25G, U28C, A29C, C30U, A31U
DNA 1: CAATCTGAATTCCGGTCTCCC
DNA 2: TGGTGGCTACGACGGGATT
B15: AGAUUCU (DNA:RNA)
RNA: B3 RNA with C27A, A29U, A31U
DNA 1: CAATCTGAATTCCGGTCTCCC
DNA 2: TGGTGGCTACGACGGGATT
B16: GUUUCUG (DNA:RNA)
RNA: B3 RNA with A25G, G26U, C27U, A29C, C30U, A31G
DNA 1: CAATCTGAATTCCGGTCTCCC
DNA 2: TGGTGGCTACGACGGGATT
B17: ACCGCGG (DNA:RNA)
RNA: B3 RNA with G26C, U28G, A29C, C30G, A31G
DNA 1: CAATCTGAATTCCGGTCTCCC
DNA 2: TGGTGGCTACGACGGGATT
B18: GGCGCAC (DNA:RNA)
RNA: B3 RNA with A25G, U28G, A29C, C30A, A31C
DNA 1: CAATCTGAATTCCGGTCTCCC
DNA 2: TGGTGGCTACGACGGGATT
B19: UUGAUAU (DNA:RNA)
RNA: B1 RNA with C25U, C26U, U27G, C31U
DNA 1: CAATCTGAATTCCGGTCTCCC
DNA 2: TGGTGGCTACGACGGGATT
B20: GUAUCGU (DNA:RNA)
RNA: B3 RNA with A25G, G26U, C27A, A29C, C30G, A31U
DNA 1: CAATCTGAATTCCGGTCTCCC
DNA 2: TGGTGGCTACGACGGGATT
B21: UCUUUGU (DNA:RNA)
RNA: B1 RNA with C25U, A28U, A30G, C31U
DNA 1: CAATCTGAATTCCGGTCTCCC
DNA 2: TGGTGGCTACGACGGGATT
B22: AUAUAUC (DNA:RNA)
RNA: B3 RNA with G26U, C27A, C30U, A31C
DNA 1: CAATCTGAATTCCGGTCTCCC
DNA 2: TGGTGGCTACGACGGGATT
B23: UCAAAUG (DNA:RNA)
RNA: B1 RNA with C25U, U27A, U29A, A30U, C31G
DNA 1: CAATCTGAATTCCGGTCTCCC
DNA 2: TGGTGGCTACGACGGGATT
B24: AGUGGUG (DNA:RNA)
RNA: B3 RNA with C27U, U28G, A29G, C30U, A31G
DNA 1: CAATCTGAATTCCGGTCTCCC
DNA 2: TGGTGGCTACGACGGGATT
B25: UGGCGUA (DNA:RNA)
RNA: B3 RNA with A25U, C27G, U28C, A29G, C30U
DNA 1: CAATCTGAATTCCGGTCTCCC
DNA 2: TGGTGGCTACGACGGGATT
B26: UGUUUGG (DNA:RNA)
RNA: B3 RNA with A25U, C27U, A29U, C30G, A31G
DNA 1: CAATCTGAATTCCGGTCTCCC
DNA 2: TGGTGGCTACGACGGGATT
B27: GCCUUAA (DNA:RNA)
RNA: B3 RNA with A25G, G26C, A29U, C30A
DNA 1: CAATCTGAATTCCGGTCTCCC
DNA 2: TGGTGGCTACGACGGGATT
B28: ACCAUAA (DNA:RNA)
RNA: B1 RNA with C25A, U27C, C31A
DNA 1: CAATCTGAATTCCGGTCTCCC
DNA 2: TGGTGGCTACGACGGGATT
B29: UACAUAG (DNA:RNA)
RNA: B1 RNA with C25U, C26A, U27C, C31G
DNA 1: CAATCTGAATTCCGGTCTCCC
DNA 2: TGGTGGCTACGACGGGATT
B30: UGGUGCA (DNA:RNA)
RNA: B3 RNA with A25U, C27G, A29G
DNA 1: CAATCTGAATTCCGGTCTCCC
DNA 2: TGGTGGCTACGACGGGATT
B31: UCAAGAC (DNA:RNA)
RNA: B1 RNA with C25U, U27A, U29G
DNA 1: CAATCTGAATTCCGGTCTCCC
DNA 2: TGGTGGCTACGACGGGATT

molecular target: T1, RBFOX1 RRM; assay: EMSA; HiTS-Eq, 1 nM pool, 10 min; buffer printed only for the single-RNA assays: 10 mM Tris pH 7.5, 150 mM NaCl, 3.4 mM EDTA, 0.001% NP-40, 30 C; conditions: tags: His6 N-terminal (pET28a); label: 5' 32P
In short: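 Purified wild-type or mutant RbFox RRM at increasing concentrations was equilibrated with 1 nM of 5′-radiolabelled RNA carrying 7 randomized nucleotides for 10 min in 50 µL. Unbound RNA was separated by 8% native PAGE and sequenced. Relative association constants came from read-count changes of each RNA species compared with the control reaction, normalised to the cognate motif.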

| Binder | binding signal |
| --- | --- |
| B1 | 0.00132 KA relative to UGCAUGU |
| B2 | 0.015 KA relative to UGCAUGU |
| B3 | 0.0034 KA relative to UGCAUGU |
| B4 | 0.00929 KA relative to UGCAUGU |
| B5 | 0.00565 KA relative to UGCAUGU |
| B6 | 0.00719 KA relative to UGCAUGU |
| B7 | 0.00652 KA relative to UGCAUGU |
| B8 | 0.01 KA relative to UGCAUGU |
| B9 | 0.0181 KA relative to UGCAUGU |
| B10 | 0.00868 KA relative to UGCAUGU |
| B11 | 0.00779 KA relative to UGCAUGU |
| B12 | 0.00911 KA relative to UGCAUGU |
| B13 | 0.00522 KA relative to UGCAUGU |
| B14 | 0.0136 KA relative to UGCAUGU |
| B15 | 0.00817 KA relative to UGCAUGU |
| B16 | 0.0265 KA relative to UGCAUGU |

| Binder | binding signal |
| --- | --- |
| B17 | 0.0113 KA relative to UGCAUGU |
| B18 | 0.00838 KA relative to UGCAUGU |
| B19 | 0.00929 KA relative to UGCAUGU |
| B20 | 0.0117 KA relative to UGCAUGU |
| B21 | 0.0208 KA relative to UGCAUGU |
| B22 | 0.00202 KA relative to UGCAUGU |
| B23 | 0.00279 KA relative to UGCAUGU |
| B24 | 0.0163 KA relative to UGCAUGU |
| B25 | 0.0143 KA relative to UGCAUGU |
| B26 | 0.0271 KA relative to UGCAUGU |
| B27 | 0.00672 KA relative to UGCAUGU |
| B28 | 0.000628 KA relative to UGCAUGU |
| B29 | 0.0117 KA relative to UGCAUGU |
| B30 | 0.0327 KA relative to UGCAUGU |
| B31 | 0.00462 KA relative to UGCAUGU |
